# Experimental data: PubChem BioAssay AID504332 (National Center for Advancing Translational Sciences (NCATS), 2011)
# In all, about 350,000 compounds went through this assay and about 31,000 (8.9%) were called active. Inconclusive results, whose numbers are uncertain, are shown with a selection of clear calls. Calls follow the shape of the dose curve; as a rule, active = well fitted inhibition curve with a large enough effect; inconclusive = small, poorly fitted or top-dose-only effect; inactive = no such curve, though single readings can be large or run the other way. Where the call is inconclusive, the potency comes from a doubtful curve fit.
# Biological target: Histone-lysine N-methyltransferase EHMT2 (Homo sapiens) (UniProt Q96KQ7)
# Assay: qHTS Assay for Inhibitors of Histone Lysine Methyltransferase G9a; also: nearly all actives have a fitted effect of over 75% in size
# Conditions: G9a H3K9 monomethylation, AlphaScreen, 2 h; activity, negative = inhibition: at 59 µM (top of the series) unless noted
# Outline: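 Compounds were preincubated with 20 nM G9a for 15 min, after which biotinylated H3K9 peptide (500 nM) and SAM (20 uM) started a 2 h room-temperature reaction. Monomethylated product was quantified by antibody-based AlphaScreen chemiluminescence.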
# % is scaled to controls: 0 for no effect and ±100 for the full control effect; potency is read from the fitted curve at half-maximal effect; tags tell the direction and shape of the fitted curve.
# Sequence of UniProt Q96KQ7 (Q96KQ7 whole entry, looked up): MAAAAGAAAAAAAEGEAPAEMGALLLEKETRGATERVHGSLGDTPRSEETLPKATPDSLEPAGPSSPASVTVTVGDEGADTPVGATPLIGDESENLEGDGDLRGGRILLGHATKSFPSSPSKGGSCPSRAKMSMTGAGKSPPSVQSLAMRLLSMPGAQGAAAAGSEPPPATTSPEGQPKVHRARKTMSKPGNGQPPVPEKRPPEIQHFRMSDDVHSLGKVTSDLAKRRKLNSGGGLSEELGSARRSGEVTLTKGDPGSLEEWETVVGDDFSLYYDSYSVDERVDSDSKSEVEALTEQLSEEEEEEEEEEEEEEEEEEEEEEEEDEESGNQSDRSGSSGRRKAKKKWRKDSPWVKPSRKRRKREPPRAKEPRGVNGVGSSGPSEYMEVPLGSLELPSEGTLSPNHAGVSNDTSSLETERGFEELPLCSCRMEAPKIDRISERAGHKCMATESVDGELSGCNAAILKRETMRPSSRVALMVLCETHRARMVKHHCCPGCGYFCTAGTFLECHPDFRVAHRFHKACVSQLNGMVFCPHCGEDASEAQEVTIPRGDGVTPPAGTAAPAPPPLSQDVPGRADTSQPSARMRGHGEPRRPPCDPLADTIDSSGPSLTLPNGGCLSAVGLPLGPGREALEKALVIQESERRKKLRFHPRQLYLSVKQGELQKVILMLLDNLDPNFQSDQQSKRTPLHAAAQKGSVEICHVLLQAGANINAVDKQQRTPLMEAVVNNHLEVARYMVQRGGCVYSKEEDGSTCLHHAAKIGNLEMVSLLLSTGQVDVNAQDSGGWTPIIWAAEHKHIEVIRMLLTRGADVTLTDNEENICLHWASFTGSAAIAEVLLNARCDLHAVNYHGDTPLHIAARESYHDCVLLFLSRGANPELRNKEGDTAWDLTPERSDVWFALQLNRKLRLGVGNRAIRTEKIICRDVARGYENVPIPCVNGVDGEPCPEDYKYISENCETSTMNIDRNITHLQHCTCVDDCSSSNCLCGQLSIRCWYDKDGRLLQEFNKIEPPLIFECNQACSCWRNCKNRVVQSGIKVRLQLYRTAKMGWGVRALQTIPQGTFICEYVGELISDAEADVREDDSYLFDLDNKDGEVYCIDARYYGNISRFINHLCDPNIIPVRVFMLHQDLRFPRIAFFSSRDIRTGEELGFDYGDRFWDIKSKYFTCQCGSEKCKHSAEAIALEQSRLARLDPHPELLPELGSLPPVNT
Structure (SMILES),Potency,"activity, negative = inhibition"
Cc1cc(NS(=O)(=O)c2c(C)c(C)cc(C)c2C)no1,inactive,–
CCN(CC)c1ccc(NC(=O)Cn2c(C(C)NC(=O)c3ccccc3)nc3ccccc32)cc1 (stereo not drawn),"inconclusive: 5.01 µM [inhibitor, full curve, poor fit]",–
COc1ccc(NCc2nnc(SCC(=O)NNC(=O)c3ccc(C)cc3)n2C)cc1,"inconclusive: 31.6 µM [inhibitor, partial curve]",–
CCNC(=O)NC(=O)CSc1ccc(S(=O)(=O)N2CCCCC2)cn1,"inconclusive: 3.16 µM [inhibitor, single point]",–
Cc1ccc(NC(=O)NC2CC(=O)N(c3ccc4c(c3)OCCO4)C2)c(C)c1 (stereo not drawn),inactive,–
CCc1ccccc1Nc1nn2c(=O)c3ccc(C(=O)NCc4ccccc4Cl)cc3nc2s1,"inconclusive: 4.47 µM [inhibitor, full curve, poor fit]",–
Cc1cc(O)c(C(=O)Nc2cccc(Cl)c2)c(=O)n1C,active: 50.1 µM,–
O=C(Nc1nc2ccccc2s1)C1CCN(S(=O)(=O)c2cc([N+](=O)[O-])ccc2Cl)CC1,–,inconclusive: -102% [inhibitor]
CN(C)C(=O)NC(NC(=S)Nc1ccccc1)C(Cl)(Cl)Cl (stereo not drawn),"inconclusive: 8.91 µM [inhibitor, full curve, poor fit]",–
COc1ccc(S(=O)(=O)NCc2ccc(C(=O)N(C)Cc3ccco3)cc2)cc1,inactive,–
CCOC(=O)N1CCC2(CC1)C(C#N)=C(N)Oc1n[nH]c(CSc3ccc(C)cc3)c12,"inconclusive: 1.78 µM [inhibitor, partial curve, poor fit]",–
O=C(O)Cn1nnnc1-c1ccc(F)cc1,"inconclusive: 2.51 µM [inhibitor, partial curve, poor fit]",–
Cc1ccc(Cc2nnc(SCC(=O)Nc3ccc(C)cc3C)[nH]c2=O)cc1,inactive,–
Clc1ccc(C=NC23CN4CN(CN(C4)C2)C3)cc1,"inconclusive: 70.8 µM [inhibitor, partial curve]",–
Clc1ccc(Cc2nn3c(Cn4nnc5ccccc54)nnc3s2)cc1,–,inconclusive: -110% [inhibitor] [at 12.7 µM]
CCN(CC)CCCn1c2c(c(SCC(=O)Nc3nccs3)nc1=O)CCC2,"inconclusive: 79.4 µM [inhibitor, partial curve, poor fit]",–
Nc1cccc(-c2nc3ccc(N)cc3s2)c1,"inconclusive: 79.4 µM [inhibitor, single point]",–
CCOc1cc(/C=C2/C(=O)N(c3ccccc3)N=C2C)ccc1OC(=O)c1ccco1,–,inconclusive: -89.8% [inhibitor]
CC(C)=CCC/C(C)=C/CO,inactive,–
COCCNc1nc(-c2cc(C)c(C)cc2C)cs1,"inconclusive: 56.2 µM [inhibitor, partial curve, poor fit]",–
CCCCOc1ccc(C(=O)N(Cc2nc(-c3ccc(Cl)cc3)no2)C(C)C)cc1,inactive,–
CCCCNC(=O)c1sc2ncccc2c1-n1cccc1,inactive,–
COc1cc(/C=C2\SC(=S)N(CC(=O)Nc3ccc(O)cc3)C2=O)cc(OC)c1OC,inactive,–
CCc1nc(SCC(=O)NCc2ccco2)c2c(=O)n(C)c(=O)n(C)c2n1,"inconclusive: 44.7 µM [inhibitor, partial curve]",–
CCC(C)n1c(SCC(=O)NC(=O)c2cccn2C)nc2ccccc2c1=O (stereo not drawn),"inconclusive: 50.1 µM [inhibitor, partial curve]",–

Structure (SMILES),Potency,"activity, negative = inhibition"
O=C(CCc1ccccc1)N1CCc2c([nH]c3ccccc23)C1c1ccc(F)cc1 (stereo not drawn),inactive,–
CCOc1cc(CNc2ccc3c(c2)OCCO3)cc(Br)c1OC,active: 3.98 µM,–
COc1ccc(Cl)cc1NC(=O)CN(C)CC(=O)Nc1ccc2c(c1)OCO2,"inconclusive: 79.4 µM [inhibitor, partial curve]",–
CCN(CC(=O)Nc1c(F)cccc1F)C(=O)CNC(=O)c1cccc(C)c1,inactive,–
CCn1c(CSCc2ccc(C)cc2)nnc1SCC(=O)N1CCN(c2ccccc2)CC1,"inconclusive: 25.1 µM [inhibitor, single point]",–
CCN1CCCC1CNC(=O)Cn1cnc2sc(C)c(S(=O)(=O)N3CCC(C)CC3)c2c1=O (stereo not drawn),"inconclusive: 39.8 µM [inhibitor, single point]",–
CN(CC(=O)Nc1ccc(F)cc1)C(=O)COC(=O)c1cccc(N(C)C)c1,inactive,–
COc1ccc2c(c1)nc(SCC(=O)C(C)(C)C)n2C,"inconclusive: 39.8 µM [inhibitor, single point]",–
Cc1ccc(NCC(=O)c2ccc([N+](=O)[O-])cc2)cc1,active: 8.91 µM,–
O=C(NCCCc1nc2ccccc2n1Cc1ccccc1F)c1ccco1,inactive,–
COc1ccccc1-c1nnc2sc(COc3ccccc3)nn12,"inconclusive: 89.1 µM [inhibitor, single point]",–
Cn1c(=O)c2c(ncn2CC(=O)OCC(=O)Nc2cc(Cl)ccc2Cl)n(C)c1=O,inactive,–
CN1CCN(c2ccnc(-c3cccnc3)n2)CC1,–,inactive: 12.8% [at 0.501 µM]
Nc1nc2ccc(Cc3ccncc3)cc2s1,"inconclusive: 25.1 µM [inhibitor, single point]",–
O=C(CSc1nnc(-c2ccc(Cl)cc2)n1Cc1ccco1)Nc1ccc2c(c1)OCCO2,active: 44.7 µM,–
CC(C)(C)c1ccc(C(=O)CC(=O)c2cc(Cl)ccc2O)cc1,–,inactive: 32.9% [at 12.7 µM]
Cc1c(NC(=O)CN2CCN(C(c3ccccc3)c3ccccc3)CC2)c(=O)n(-c2ccccc2)n1C,–,inactive: -9.55% [at 12.7 µM]
Cc1ccc2nc(SCC(=O)NCCCN3CCCC3=O)[nH]c2c1,–,inactive: 11.7% [at 12.7 µM]
C=CCNCc1cc(=O)n2c(-c3ccccc3)csc2n1,"inconclusive: 0.316 µM [inhibitor, full curve, poor fit]",–
Cc1cccc(C(=O)Nc2ccccc2OCc2cc(=O)n3c(C)csc3n2)c1,inactive,–
O=C(c1ccccc1)n1c(=S)nc2ccccn21,"inconclusive: 89.1 µM [inhibitor, single point]",–
Cc1nn(CC(=O)NC2C(=O)N3C(C(=O)O)=C(CSc4nnnn4C)CSC23)cc1Br (stereo not drawn),active: 39.8 µM,–
CCOc1ccc(C(=O)OCC(=O)Nc2cc(C)on2)cc1OCC,"inconclusive: 89.1 µM [inhibitor, partial curve, poor fit]",–
O=C(COc1ccc(F)cc1)Nc1ccc(S(=O)(=O)Nc2ncccn2)cc1,"inconclusive: 44.7 µM [inhibitor, partial curve]",–
Cc1nn(CC#N)c(=O)n1-c1ccc(F)cc1,–,inactive: 39% [at 12.7 µM]

Structure (SMILES),Potency,"activity, negative = inhibition"
COc1cccc(NC(=O)CC2C(=O)NCCN2C(=S)Nc2ccc(F)cc2)c1 (stereo not drawn),inactive,–
O=c1oc2c(CN3CCOCC3)c(O)ccc2c2c1CCCC2,"inconclusive: 89.1 µM [inhibitor, single point]",–
OC(CNCc1ccccn1)c1ccccc1 (stereo not drawn),"inconclusive: 3.16 µM [inhibitor, full curve, poor fit]",–
COC(=O)c1c(NC(=O)c2ccco2)sc2c1CCN(C(C)C)C2,active: 31.6 µM,–
COc1ccc(C(=O)OCc2cc(=O)n3nc(C4CC4)sc3n2)cc1OC,inactive,–
O=C(c1cc([N+](=O)[O-])cc([N+](=O)[O-])c1)N(c1ccccn1)c1ccccn1,"inconclusive: 89.1 µM [inhibitor, single point]",–
CCOC(=O)Cn1nc(-c2ccccc2)c2cnc3ccc(CC)cc3c21,"inconclusive: 39.8 µM [inhibitor, partial curve]",–
CCSC1(SCC)N=C(N)C2(C#N)C(c3ccc(F)cc3)C12C#N (stereo not drawn),active: 39.8 µM,–
Cc1onc(-c2ccc(Cl)cc2Cl)c1-c1csc(N/N=C/c2ccccc2Cl)n1,inactive,–
COc1cc(OC)cc(N2C(=O)CSC23C(=O)Nc2ccccc23)c1 (stereo not drawn),"inconclusive: 4.47 µM [inhibitor, full curve]",–
CCCOc1ccc(-c2cnc(N)s2)cc1,–,inconclusive: -98.6% [inhibitor]
CC(=C1C(=O)c2ccccc2C1=O)N1CCN(CCN=CC2=C(O)CC(C)(C)CC2=O)CC1,"inconclusive: 39.8 µM [inhibitor, single point]",–
Cc1ccc(C(C)C)cc1NC(=O)Nc1ccc([N+](=O)[O-])cc1,–,inactive: 7.7% [at 12.7 µM]
CC(=O)NC(Cc1ccccc1F)C(=O)NC1CCN(S(=O)(=O)c2ccccc2)CC1 (stereo not drawn),inactive,–
Cc1ccc2oc(C(=O)Nc3ccc(S(=O)(=O)Nc4nc(C)cc(C)n4)cc3)cc(=O)c2c1,"inconclusive: 35.5 µM [inhibitor, partial curve, poor fit]",–
COC(=O)c1nc(-n2nc(C)cc2C)ccc1Cl,"inconclusive: 35.5 µM [inhibitor, single point]",–
O=C(CSc1nc2sc3c(c2c(=O)[nH]1)CCCC3)Nc1ccccc1F,"inconclusive: 22.4 µM [inhibitor, partial curve, poor fit]",–
c1cc2nc(C34CC5CC(CC(C5)C3)C4)[nH]c2cn1,active: 14.1 µM,–
COc1cccc(-c2csc(N3CCN(C(=O)Nc4ccccc4Cl)CC3)n2)c1,"inconclusive: 44.7 µM [inhibitor, partial curve, poor fit]",–
CSc1nc2ccc(NC(=O)C3=NNC(=O)CC3)cc2s1,inactive,–
CCc1ccc(NC(=O)CCC(=O)N2CCSc3ccccc32)cc1,inactive,–
CC(=O)Nc1ccc(S(=O)(=O)NNC(=O)COc2cc(C)ccc2C(C)C)cc1,"inconclusive: 39.8 µM [inhibitor, single point]",–
O=C(Nc1cccc(S(=O)(=O)NC2=NCCC2)c1)c1ccccc1OC(F)F,"inconclusive: 1.26 µM [inhibitor, full curve, poor fit]",–
